# In all, about 48,000 compounds went through this assay and about 120 (0.25%) were called active. Inconclusive results (about 4%) are left out. Calls come from the whole dose curve; as a rule, active = well fitted activation curve with a large enough effect; inconclusive = small, poorly fitted or top-dose-only effect, or another doubt; inactive = no such curve, though single readings can be large or run the other way. The list shows a part of the results.
# Assay: Primary qHTS for Identification of Small Molecule Activators of Huntingtin-Antisense Promoter Activity; note: nearly all actives have a fitted effect of over 55% in size
# Conditions: HEK293 HTT-AS promoter firefly luciferase reporter, 24 h; series mostly up to 57.5 µM; activity change, positive = activation: at the top concentration
# Procedure, shortened: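 HEK293 Fluc reporter, 2,500 cells/well, 24 h pre-culture; cpds up to 57.5 uM final, 24 h 37 degrees C; Dual-Glo, 10 min RT; normalized vehicle = 0%, zero RLU = -100%.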
row,Compound,"activity change, positive = activation"
1,CCOC(=O)c1c(NC(=O)c2cc(-c3ccc(Cl)cc3)on2)sc(C)c1C,inactive: -2.76%
2,CCC(C)NC(=O)Cn1c(-c2cccs2)cc2cc(Cl)ccc21 (centres undefined),inactive: -8.18%
3,Cc1cc(N2CCC(C(=O)NCCC(C)C)CC2)n2nc(C)c(-c3ccc(Cl)cc3)c2n1,inactive: -11.4%
4,Cc1ccc(CN(C(=O)c2ccccc2[N+](=O)[O-])c2ccccn2)cc1,inactive: -9.51%
5,CC(C)(C)c1ccccc1NC(=O)c1cnn2c(C(F)F)cc(-c3ccccc3)nc12,inactive: -1.2%
6,COc1ccccc1NC(=O)CSc1oc(-c2ccc(F)cc2)nc1S(=O)(=O)c1ccc(Br)cc1,inactive: 7.92%
7,Cn1c(=O)c2c(SCC(=O)Nc3ccc(F)cc3F)nc(C3CCCC3)nc2n(C)c1=O,inactive: -1.74%
8,CCOC(=O)c1cnc(N2CCN(c3ccc(C)cc3C)CC2)c2ccccc12,inactive: -10.1%
9,CSc1cccc(NC(=O)CN2C(=O)COc3ccc(S(=O)(=O)N4CCC(C)CC4)cc32)c1,inactive: -26.2%
10,Cc1ccc(C)c(NC(=O)Cn2ccn(-c3ccc(F)cc3)c(=O)c2=O)c1,inactive: -2.17%
11,C[C@]12CC[C@@H]3c4ccc(O)cc4C[C@@H](CCCCCCCCCS(=O)CCCC(F)(F)C(F)(F)F)[C@H]3[C@H]1CC[C@H]2O (some centres undefined),inactive: -5.54%
12,Cc1ccccc1CNC(=O)c1ccc2[nH]c(C)c(C)c2c1,inactive: -9.63%
13,Cn1nnnc1SCCCNCc1cc(Cl)ccc1OCc1ccccc1F,inactive: -24.4%
14,Cc1cccc(N2CCN(S(=O)(=O)c3c(C(=O)N4CCC(C)CC4)c(C)n(C)c3C)CC2)c1C,inactive: -32.7%
15,Cc1ccc(NC(=O)Cn2cnc3sc(C)c(S(=O)(=O)N4CCN(c5ncccn5)CC4)c3c2=O)cc1F,inactive: -7.07%
16,COC(=O)c1ccc(NC(=O)CC2C(=O)N(c3ccccc3)C(=O)N2Cc2ccco2)cc1 (centres undefined),inactive: -1.97%
17,COc1ccc(NC(=O)CSC2=Nc3ccccc3C3=NC(CC(=O)NCc4ccc5c(c4)OCO5)C(=O)N23)cc1 (centres undefined),inactive: 6.76%
18,CCOc1ccc(C(c2c(O)cc(C)n(Cc3ccco3)c2=O)N2CCN(c3ccccc3)CC2)cc1 (centres undefined),inactive: -7.52%
19,Cc1cccc(CNC(=O)C2CCN(S(=O)(=O)c3ccc4c(c3)CCCN4C(=O)C3CCC3)CC2)c1,inactive: 0%
20,CCCc1cnc2c(c1SCC(=O)Nc1ccccc1F)c(=O)n(C)c(=O)n2C,inactive: -25.9%
21,Cc1ccc(C2C=C(c3ccc(Cl)cc3)Nc3nc(NC(=O)c4ccco4)nn32)cc1 (centres undefined),inactive: -49.5%
22,COc1cc(Nc2ncc3c(n2)CCN(Cc2cc(F)cc(F)c2)C3)cc(OC)c1,inactive: -34%
23,CCc1nn(Cc2c(C)cc(C)cc2C)c(=O)c2cc3cc(C)ccc3n12,inactive: -7.49%
24,O=C(Nc1ccc(F)cc1F)N1CCN(c2ccc(Cl)c(Cl)c2)CC1,inactive: -28.3%

row,Compound,"activity change, positive = activation"
1,CCCC12CN3CC(CCC)(CN(C1)C3c1c(C)[nH]c(=O)[nH]c1=O)C2=O (centres undefined),inactive: 3.54%
2,CC1CN(C(=O)CCC(=O)NCc2ccccc2)c2cc(Cl)ccc2O1 (centres undefined),inactive: 1.53%
3,Cc1ccc(Cl)cc1NC(=O)Cn1ncc2c(C)n(Cc3ccccc3F)c(C)c2c1=O,inactive: -27.4%
4,COc1ccc(-c2nc(-c3ccccc3)c(-c3ccc(F)cc3)[nH]2)c(OC)c1C,inactive: -23.1%
5,Cc1cc(C)cc(N2C(=O)CCSC23C(=O)N(Cc2ccccc2)c2ccccc23)c1 (centres undefined),inactive: -17.8%
6,O=S(=O)(NCCc1csc2nc(-c3ccc(F)cc3)nn12)c1ccc(Oc2ccccc2)cc1,inactive: -38.5%
7,CCOc1ccc(CCNC(=O)c2ccc3c(c2)sc2nc(-c4ccc(F)cc4)cn23)cc1OCC,inactive: -16.4%
8,Cc1ccc(C(CC(=O)Nc2ccc(F)c(Cl)c2)N2Cc3ccccc3C2=O)cc1 (centres undefined),inactive: -12.7%
9,COc1cccc(NC(=O)N(Cc2c[nH]c3ccccc23)C2CCCCC2)c1,inactive: 9.16%
10,COc1cccc(CNCCSc2nnnn2C)c1OCc1ccc(F)cc1,inactive: -19.9%
11,CC(C)c1ccc(NC(=O)CCn2c(=O)c3cccn3c3ccccc32)cc1,inactive: -15%
12,CCOC(=O)c1ccn(-c2nc(-c3cccc(OC)c3)cc(C(F)(F)F)n2)n1,inactive: -24.2%
13,Cc1ccc(N2CC(NC(=O)C3CC3)CC2=O)cc1C (centres undefined),inactive: -6.16%
14,COc1cc(C(=O)Nc2nonc2-c2ccc(Cl)cc2)cc(OC)c1OC,inactive: -42.4%
15,Cc1nc2sccn2c(=O)c1S(=O)(=O)Nc1ccc(N2CCN(C(=O)C(C)C)CC2)cc1,inactive: -15.9%
16,CCOC(=O)c1[nH]c(C)c(CCC(=O)Nc2ccc(Br)c(C)c2)c1C,inactive: -24%
17,CC1CCN(S(=O)(=O)c2ccc3c(c2)N(CC(=O)NCCCN2CCCC(C)C2)C(=O)CS3)CC1 (centres undefined),inactive: -0.178%
18,Cc1cccc(CNC(=O)c2ccc(NC(=O)N3CCSc4ncccc43)cc2)c1,inactive: -5.01%
19,CCN(CC)CCN,inactive: -5.07%
20,CCOc1ccc(NC(=O)C(C)Sc2nc3ncccc3o2)cc1 (centres undefined),inactive: 22.7%
21,Cc1cccc(NC(=O)c2oc3ccc(S(=O)(=O)N4CCC5(CC4)OCCO5)cc3c2C)c1C,inactive: -40%
22,COc1ccc(-n2nc(C(=O)Nc3cccc(C)n3)c3c4ccccc4n(C)c3c2=O)cc1,inactive: -12.1%
23,CC(=O)c1ccc(N2CCN(c3ncnc4c3cnn4C)CC2)cc1,inactive: -9.13%
24,Cc1ccc2c(c1)-c1ncc(C(=O)c3cc(Br)ccc3O)cc1CO2,inactive: -24.1%

row,Compound,"activity change, positive = activation"
1,COc1ccc(C)cc1NC(=O)CN1C(=O)COc2ccc(S(=O)(=O)NC3CCCC3)cc21,inactive: -22.4%
2,CCOc1ccccc1NC(=O)c1nn(C)c2c1CSc1ccccc1-2,inactive: -7.54%
3,CCOc1ccc(-c2csc(-c3c(N)c(C(=O)c4ccc5c(c4)OCO5)n4ccccc34)n2)cc1,inactive: 11.2%
4,Cn1nc(-c2ccc(N3CCCCC3)c(NC(=O)c3ccc(Cl)cc3)c2)c2ccccc2c1=O,inactive: 16.2%
5,CN(C)CCNC(=O)c1ccc(Cn2c(=O)c3cccn3c3cccnc32)cc1,inactive: -8.74%
6,CCOC(=O)c1cc(S(=O)(=O)Nc2ccccc2OCC)[nH]n1,inactive: -12.2%
7,Cc1ccccc1CSc1nc2c([nH]c3ccccc32)c(=O)n1C,inactive: -8.33%
8,COc1ccc(-n2c(=O)c3c4c(sc3n3c(SC(C)C)nnc23)COC(C(C)C)C4)cc1 (centres undefined),inactive: -2.39%
9,CCCc1cc(=O)[nH]c(SCc2nc(-c3ccccc3F)no2)n1,inactive: -1.21%
10,CCCn1c(=NC(=O)c2c(-c3c(F)cccc3Cl)noc2C)c(C(=O)OCC)cc2c(=O)n3ccccc3nc21,inactive: 2.92%
11,CC(=O)c1cccc(Nc2ccc3cc(S(=O)(=O)N4CCCC4)ccc3n2)c1,inactive: -18.9%
12,Cc1ccc(-n2ncc(C(=O)NCCN3CCc4ccccc4C3)c2C2CCNCC2)cc1C,inactive: -5.13%
13,COc1ccc(NC(=O)c2cc(=O)c3ccc(C)c(C)c3o2)cc1Cl,"inactive: 10.7% [at 11.5 µM, percent change from vehicle, -100% = no light]"
14,COc1ccccc1-c1cc(C(F)(F)F)nc(S(=O)(=O)CCCC(=O)Nc2ccc(F)cc2F)n1,inactive: -92.2%
15,O=C(Cn1c(=O)n(Cc2nc(-c3ccccc3)no2)c(=O)c2cc3c(cc21)OCO3)Nc1cccc(C(F)(F)F)c1,inactive: -18.9%
16,COc1ccc(-c2ccc(CCC(=O)O)n2-c2cc(Cl)ccc2O)cc1,inactive: 11%
17,COc1cccc(C2CC(=O)Nc3c2c(=O)n(C)c2nc4ccccc4n32)c1 (centres undefined),inactive: -16.7%
18,CCOC(=O)c1c(C)[nH]c(C)c1S(=O)(=O)N(C)CC(=O)Nc1cccc(C(F)(F)F)c1,inactive: -26.7%
19,CCOC(=O)C1CCN(C(=O)Cn2ncc3c([nH]c4ccccc43)c2=O)CC1,inactive: -6%
20,CCC(C)N(C)C(=O)c1cc2ccccc2c(-c2ccccc2Cl)n1 (centres undefined),inactive: -18.6%
21,Cc1cccc(C(=O)Nc2nc(-c3nnn(-c4cc(C)ccc4C)c3C)ns2)c1,inactive: -80.1%
22,Cc1cc(C)cc(NC(=O)Cn2c(=O)n(Cc3ccc4c(c3)OCO4)c(=O)c3oc4ccccc4c32)c1,inactive: -4.65%
23,Cc1cccc(CNC(=O)Cn2ccc3cc(S(=O)(=O)N4CCC(C)CC4)ccc32)c1,inactive: -17%
24,COc1cc(OC)cc(C(=O)Nc2ccc3nc(N4CCC(C)CC4)cc(C)c3c2)c1,inactive: -35.1%

row,Compound,"activity change, positive = activation"
1,COc1cccc(C(=O)Nc2nnc(S(=O)(=O)N3CCOCC3)s2)c1,inactive: -12.9%
2,CCCCOc1cccc(C(=O)Nc2cccc3ccc(C)nc23)c1,inactive: -7.85%
3,Cc1ccc(CS(=O)(=O)Cc2ccc(C(=O)NCCc3ccc(Cl)cc3)o2)cc1,inactive: -11.7%
4,Cc1cc(C)c2c(=O)cc(C(=O)Nc3ccccc3Cl)oc2c1,"inactive: 14.6% [at 11.5 µM, percent change from vehicle, -100% = no light]"
5,Cc1ccc2c(CC(=O)Nc3cc(C(F)(F)F)ccc3Cl)coc2c1C,inactive: -5.21%
6,CCC12CN3CC(CC)(CN(C1)C3c1ccc(OCc3ccccc3)cc1)C2=O (centres undefined),inactive: 11.1%
7,O=S(=O)(O)NC1CCCCC1,inactive: -2.49%
8,CCOC(=O)c1c(C)[nH]c(C)c1S(=O)(=O)N1CCC(C(=O)Nc2ccccn2)CC1,inactive: -5.38%
9,Cc1ccc2oc(=O)n(CCNC(=O)Nc3ccccc3Cl)c2c1,inactive: -22.3%
10,COc1ccc(C2CC(=O)Nc3c2c(=O)nc2c(C)cccn32)cc1 (centres undefined),inactive: -13.2%
11,O=C(Cn1nnc2sc3c(c2c1=O)CCCC3)Nc1ccc(F)c(Cl)c1,inactive: -9.88%
12,COc1cccc(NC(CNS(=O)(=O)c2ccc(C)cc2)c2ccccc2)c1 (centres undefined),inactive: -22.2%
13,CCN1C(=O)c2ccccc2Sc2ccc(NC(=O)c3ccc(C)c(F)c3)cc21,inactive: -32.7%
14,Cc1cc(-c2ccc(C)c(S(=O)(=O)NCc3ccc(Cl)cc3)c2)on1,inactive: -23%
15,CCCS(=O)(=O)NCCc1csc2nc(-c3ccc(OC)cc3)nn12,inactive: -6.45%
16,Cc1ccccc1CNC(=O)CCCn1nc(C)c2sc3ccccc3c2c1=O,inactive: -1.79%
17,COc1ccc(C2NC(=O)NC(C)=C2C(=O)Nc2cc(C)cc(C)c2)c(OC)c1 (centres undefined),inactive: -12%
18,CCc1c(C)nc2nncn2c1Nc1ccc(C)c(F)c1,inactive: -16.1%
19,COc1ccccc1N(CC(=O)NCCSCc1ccc(Cl)cc1)S(C)(=O)=O,inactive: -2.24%
20,CN(Cc1ccccc1)c1ncnc2c1nc1n2CCCC1,inactive: -10.7%
21,COc1cccc(CNC(=O)c2c(O)nc3ccccn3c2=O)c1,inactive: -5.01%
22,CCOc1ccc(N2CC(c3nc4ccccc4n3CC(C)C)CC2=O)cc1 (centres undefined),inactive: -3.77%
